From the supplement of paper PMC9446081 come the findings set out here.

Structures are written as SMILES. Screen size: about 39,000 compounds; about 220 (0.56%) showed activity. Some of the results follow.
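Note: static incubation at 37 °C against the wild-type strain, values averaged over two biological replicates.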

The subject of the test is Escherichia coli K-12 BW25113. As to the kind of experiment: relative growth (OD600 normalised to plate interquartile mean) (fraction); higher = less growth inhibition, active = 0.2 or less. Particulars: 50 µM; LB; incubation time: overnight (16-24 h).
For the molecule `COc1ccc(NC(=O)N(C)C[C@@H]2Oc3c(NS(C)(=O)=O)cccc3C(=O)N([C@H](C)CO)C[C@H]2C)cc1`, the relative growth is inactive: 1.01. As to `O=C(CN1CCOCC1)NCC[C@H]1CC[C@@H](NC(=O)Cc2ccccn2)[C@@H](CO)O1`, the relative growth was inactive: 0.952. To `CC(=O)Nc1ncc([N+](=O)[O-])s1` belongs inactive: 0.923; to `C[C@@H]1CCCCO[C@H](CN(C)Cc2ccc(Cl)c(Cl)c2)[C@H](C)CN([C@@H](C)CO)C(=O)c2cc(NC(=O)Nc3ccc(F)cc3)ccc2O1`, inactive: 0.999. To `COc1ccc(S(=O)(=O)Nc2cccc3c2O[C@H](CN(C)Cc2ccc(Cl)c(Cl)c2)[C@H](C)CN([C@H](C)CO)C3=O)cc1` belongs inactive: 1.03; to `C[C@H]1CN([C@@H](C)CO)C(=O)c2c(c3ccccc3n2C)-c2ccccc2CO[C@@H]1CN(C)Cc1cccc(C(F)(F)F)c1`, inactive: 1.03. For `Cc1cccnc1[C@@H](NC(=O)C1CCN(CCOc2ccc(Cl)cc2Cl)CC1)c1ccc(Cl)cc1` the value was inactive: 0.994. Take `C[C@H](CO)N1C[C@H](C)[C@H](CN(C)C(=O)Nc2cccc3ccccc23)Oc2ccc(NC(=O)CCCCCC(=O)Nc3ccccc3N)cc2CC1=O`: the relative growth is inactive: 1.04.

`Cc1noc(C)c1NC(=O)N(C)C[C@@H]1OCCCC[C@H](C)Oc2ccc(NC(=O)NC3CCCCC3)cc2C(=O)N([C@@H](C)CO)C[C@@H]1C`: the relative growth was inactive: 0.842. For `C=CC(=O)NCCCCNC(=O)C=C` the value was inactive: 0.999; for `C[C@@H]1CCCCO[C@H](CN(C)C(=O)C2CCCCC2)[C@H](C)CN([C@H](C)CO)C(=O)c2cc(NC(=O)CCC(F)(F)F)ccc2O1`, inactive: 0.982. Take `COc1ccc(C#Cc2ccc3c(c2)[C@]2(C(=O)N3)[C@H](C(=O)Nc3nc4ccccc4s3)[C@H]3C(=O)O[C@H](c4ccccc4)[C@H](c4ccccc4)N3[C@@H]2c2ccc(O)cc2)cc1`: the relative growth is inactive: 0.997. For `O=C(C[C@@H]1C=C[C@H](NC(=O)CN2CCOCC2)[C@H](CO)O1)NCc1cccc(F)c1` the value was inactive: 0.951; for `CC1(C)CCCC2(C)C1CCC1(C)OCCC12` (centres undefined), inactive: 1.11. For `[N-]=[N+]=Nc1ccccc1[C@H]1OC(c2ccc(OCCCO)cc2)=N[C@@]1(CCS(=O)(=O)c1ccccc1)C(=O)N1CCCCC1` the value was inactive: 1.04; for `COc1ccc(S(=O)(=O)N(C)C[C@H]2OCCCC[C@@H](C)Oc3ccc(NC(=O)NC4CCCCC4)cc3C(=O)N([C@H](C)CO)C[C@@H]2C)cc1`, inactive: 1.01. `O=C(NO)c1cccc(C(=O)N/N=C/[C@H](O)[C@H](O)[C@@H](O)[C@@H](O)CO)c1`: the relative growth is inactive: 0.988. For `C[C@@H]1CN([C@@H](C)CO)C(=O)c2cccc(NC(=O)CCCCCC(=O)Nc3ccccc3N)c2O[C@@H]1CN(C)Cc1ccc(C(F)(F)F)cc1` the value was inactive: 1.02; for `C[C@@H]1CCCCO[C@@H](CN(C)C(=O)c2ccccc2)[C@H](C)CN([C@@H](C)CO)C(=O)c2cc(NC(=O)c3ccccc3)ccc2O1`, inactive: 1.01. Take `C[C@H]1CCCCO[C@@H](CN(C)C(=O)C2CCCCC2)[C@@H](C)CN([C@@H](C)CO)C(=O)c2cc(NC(=O)C3CCCCC3)ccc2O1`: the relative growth was inactive: 1.01.

For `Cc1noc(C)c1S(=O)(=O)N(C)C[C@H]1Oc2ccc(NS(=O)(=O)c3cccs3)cc2C(=O)N([C@H](C)CO)C[C@H]1C`, the relative growth is inactive: 1.04.

On to `COc1cccc(C#Cc2ccc([C@H]3[C@H](CO)N4C(=O)CN(S(=O)(=O)c5ccccc5C)C[C@@H]34)cc2)c1`, for which the relative growth is inactive: 1.01. For `CCOC(=O)c1cccc(N)c1.CS(=O)(=O)O` the value was inactive: 1.03. For `CNC[C@H]1OCCCC[C@@H](C)Oc2ccc(NC(=O)Nc3ccc(C(F)(F)F)cc3)cc2C(=O)N([C@@H](C)CO)C[C@H]1C` the value was inactive: 0.967. `COc1ccccc1CN(C)C[C@@H]1OCc2ccccc2-c2c(n(C)c3ccccc23)C(=O)N([C@@H](C)CO)C[C@@H]1C`: the relative growth is inactive: 1.

As to `C[C@H](CO)N1C[C@H](C)[C@H](CN(C)Cc2cccc3c2OCCCO3)OCc2ccccc2-c2c(n(C)c3ccccc23)C1=O`, the relative growth was inactive: 1.03.

Take `COc1cccc(NC(=O)N[C@@H]2C=C[C@@H](CC(=O)N3CCN(C)CC3)O[C@@H]2CO)c1`: the relative growth was inactive: 1.01. For `Cc1ccc(S(=O)(=O)N(C)C[C@@H]2Oc3ccc(N(C)C)cc3CC(=O)N([C@H](C)CO)C[C@@H]2C)cc1` the value was inactive: 0.992; for `COc1ccc(NC(=O)N(C)C[C@H]2Oc3ccc(NC(=O)C4CC4)cc3CC(=O)N([C@H](C)CO)C[C@@H]2C)cc1`, inactive: 0.872; for `C[C@@H]1CCCCO[C@@H](CN(C)S(=O)(=O)c2ccc(F)cc2)[C@H](C)CN([C@H](C)CO)C(=O)c2cc(NC(=O)Nc3ccc(F)cc3)ccc2O1`, inactive: 1.02. In the case of `C[C@H](CO)N1C[C@H](C)[C@@H](CN(C)C(=O)C2CCCCC2)OCCCC[C@H](C)Oc2ccc(NC(=O)Nc3ccccc3)cc2C1=O`, the relative growth is inactive: 1.02. Take `CN1CCN(C(=O)C[C@@H]2CC[C@@H](NC(=O)Cc3ccccn3)[C@H](CO)O2)CC1`: the relative growth was inactive: 0.994. To `O=C(O)C(O)C(O)C(O)C(O)C(=O)O` (centres undefined) belongs inactive: 1.07; to `C[C@H](CO)N1C[C@H](C)[C@@H](CN(C)C(=O)Nc2ccc3c(c2)OCO3)OCc2cn(nn2)CCCC1=O`, inactive: 0.994; to `CC12CCC(CC1)C(C)(C)O2`, inactive: 1.07. Regarding `CC(C)CC#Cc1ccc2c(c1)O[C@H](CN(C)CC1CCOCC1)[C@@H](C)CN([C@@H](C)CO)S2(=O)=O`, the relative growth was inactive: 1.03. To `C[C@H]1CN([C@@H](C)CO)S(=O)(=O)c2ccc(-c3cccc(F)c3)cc2O[C@@H]1CN(C)S(C)(=O)=O` belongs inactive: 1.

Take `C[C@@H]1CN([C@@H](C)CO)S(=O)(=O)c2ccc(C#Cc3cccc(F)c3)cc2O[C@H]1CN(C)S(=O)(=O)c1cn(C)cn1`: the relative growth was inactive: 1.03.

On to `C[C@H](CO)N1C[C@H](C)[C@H](CN(C)C(=O)c2ccncc2)Oc2cc(C#Cc3ccncc3)ccc2S1(=O)=O`, for which the relative growth was inactive: 0.992.

In the case of `C[C@H](CO)N1C[C@H](C)[C@H](CN(C)C(=O)c2cnccn2)Oc2cc(Br)ccc2S1(=O)=O`, the relative growth is inactive: 0.993.

For `O=C(C[C@@H]1C[C@H]2c3cc(NS(=O)(=O)c4ccc(F)cc4)ccc3O[C@H]2[C@H](CO)O1)NC1CCCC1`, the relative growth is inactive: 0.986.

Take `Cl.Clc1ccc(Cn2c(CN3CCCC3)nc3ccccc32)cc1`: the relative growth is inactive: 0.92. In the case of `C[C@H]1CN([C@@H](C)CO)C(=O)Cc2cc(NC(=O)C3CC3)ccc2O[C@@H]1CN(C)S(=O)(=O)c1ccccc1`, the relative growth is inactive: 0.998.

For the molecule `Nc1ccc(/C=C/C(=O)NCc2cc3cc(-c4ccc(C(=O)N5CCC(F)(F)CC5)cc4)cc(-c4ccc(F)cc4)c3o2)cn1`, the relative growth is inactive: 1.02. To `CCCN(C)C[C@H]1OCCCC[C@H](C)Oc2ccc(NC(=O)Cc3ccccc3)cc2C(=O)N([C@H](C)CO)C[C@H]1C` belongs inactive: 0.977. In the case of `CC(=O)NCCCC[C@@H]1NC(=O)[C@@H]2C[C@H](C(=O)NCCCCN(C)C)[C@H](c3ccc(O)cc3)N2C1=O`, the relative growth is inactive: 0.996.

Regarding `Cc1cc(CC(=O)O)n(C)c1C(=O)c1ccc(Cl)cc1`, the relative growth was inactive: 1.1. For `CN(C)c1nc2c([nH]1)c(=O)[nH]c(=O)n2C` the value was inactive: 0.998; for `O=C1CN(N=Cc2ccc([N+](=O)[O-])o2)C(=O)N1`, active: 0.0462. Regarding `CCCNC(=O)N1C[C@H](O)COC[C@@H]2O[C@@H](CC(=O)N3CCN(C)CC3)CC[C@H]21`, the relative growth is inactive: 0.98. Consider `Cc1ccc(S(=O)(=O)N(C)C[C@H]2OCCCC[C@H](C)Oc3ccc(NC(=O)c4ccccc4)cc3C(=O)N([C@@H](C)CO)C[C@H]2C)cc1`, for which the relative growth was inactive: 0.848. For `C=CCSc1nc(=O)cc(N)[nH]1` the value was inactive: 0.961. On to `O=C(C[C@@H]1CC[C@@H]2[C@H](COC[C@H](O)CN2C(=O)Nc2ccc(Cl)c(Cl)c2)O1)NCc1ccncc1`, for which the relative growth is inactive: 0.988.

On to `CN1C(=O)c2cc(NC(=O)c3cscn3)ccc2OC[C@H]2O[C@H](CC(=O)N3CCOCC3)CC[C@H]21`, for which the relative growth is inactive: 0.985. For `COCC(=O)N1C[C@@H](C)[C@H](OC)CN(C)C(=O)c2ccc(NC(=O)Nc3ccccc3)cc2OC[C@@H]1C`, the relative growth is inactive: 1.02. For the molecule `Cc1ccc(S(=O)(=O)N(C)C[C@@H]2OCCCC[C@@H](C)Oc3ccc(NS(C)(=O)=O)cc3C(=O)N([C@@H](C)CO)C[C@H]2C)cc1`, the relative growth was inactive: 0.987. With `C[C@H](CO)N1C[C@H](C)[C@H](CN(C)S(C)(=O)=O)Oc2ncc(C#CC3(O)CCCC3)cc2C1=O`, the relative growth is inactive: 0.983. On to `COc1ccc(NC(=O)N(C)C[C@H]2OCCCC[C@@H](C)Oc3ccc(NS(=O)(=O)c4ccc(Cl)cc4)cc3C(=O)N([C@@H](C)CO)C[C@H]2C)cc1`, for which the relative growth was inactive: 1.05. To `CC(C)(C)OC(=O)N1CC2(CNC(=O)O2)C1` belongs inactive: 0.876; to `C[C@@H]1CN([C@H](C)CO)C(=O)CCCn2cc(nn2)CO[C@@H]1CN(C)Cc1ccc2c(c1)OCCN2C`, inactive: 1.02; to `Cc1ccc(S(=O)(=O)Nc2ccc3c(c2)CC(=O)N([C@@H](C)CO)C[C@H](C)[C@H](CN(C)Cc2ccncc2)O3)cc1`, inactive: 0.978. Regarding `COc1c(O)cccc1O`, the relative growth was inactive: 0.843. For `C[C@@H]1CCCCO[C@@H](CN(C)S(=O)(=O)c2cn(C)cn2)[C@H](C)CN([C@@H](C)CO)C(=O)c2cc(NC(=O)Nc3ccc(C(F)(F)F)cc3)ccc2O1`, the relative growth was inactive: 1.01. For the molecule `O=C(N[C@@H]1CC[C@@H](CCNS(=O)(=O)c2ccccc2)O[C@H]1CO)c1cnccn1`, the relative growth was inactive: 0.979.
